# Measurements: the RNAGym collection of RNA variant scans (doi:10.7554/elife.90254)
# The source gives no read counts; variants with many changes may rest on few reads.
# B1: LINE1-full (parent)
# chain: UACGUAGGUGGUUUUCCCCUGAUAGUGCUAAGGGGGCCUGGAAGUUUGGACUGGGCAGAGCUCAACACAGCGUGGCAAAGUGGCUGUGGCUAGACUGCCUCUCUGGAUUCCUCGUCACUCAGCAGGGCAUCUCUGAGAGAAAUGCC
# Variants of: B1
# Assay: self-cleavage, relative activity (ratio to wild type); higher = more cleavage; in vitro, sequencing; the parent is a self-cleaving ribozyme
row,Variant,self-cleavage
1,UACGUAGGUGGUUUUCCCCUGAUAGUGCUAAGGGGGCCUGGAAGUUUGGACUGGGCAGAGCUCAACACAGCGUGGCAAAGUGGCAGUGGCUAGACUGCCUCUCUGGAUUCCUCGUCACUCAGCAGGGCAUCUCUGAGGGAAAAGCC [U85A A138G U143A],0.1
2,UACGUAGGUGGUUUUCCCCCGGUAGUGCUAAGGGGGCCUGGAAGUUUGGACUGGGCAGAGCUCAACACAGCGUGGCAAAGUGGCUGUGGCUAGACUGCCUCUCUGGAUUCCUCGUCGCUCAGCAGGGCAUCUCUGAGAGAAAUGCC [U20C A22G A117G],1.02
3,UACGUAGGUGGUUUUCCCCUGAUAGUGCUAAGGGGGCCUGGAGGUUUAGACUGGGCAGAGCUCAACACAGCGUGGCAAAGUGGCUGUGGCUGGACUGCCUCUCUGGAUUCCUUGUCACUCAGCCGGGCAUCUCUGAGAGAAAUGCC [A43G G48A A92G C113U A124C],0.1
4,UACGUAGGUGGUUUUCCCCUGAUAGUGCUAAGGGGGCCUGGAAGUAUGGACUGGCCAGAGCCCAUCACGGCGUGGCAAAGUGGCUGUGGCUAGACUGCCUCUCUGGAUUCCUCGUCACUCAGCAGGGCAUCUCUGAGAGAAAUGCC [U46A G55C U62C A65U A69G],0
5,UACGUAGGUGGUUUUCCCCUGAUAGUGCUAAGGGGGCCUGGAAGUUUGGACUGGGCAGAGCUCAACACAGCGUGGCAAAGUGGCUGUGGCUAGACUGCCUCUCUGGAUCCCUCGCCACUCAGCAGGGCUUCUCUGAGAGGAAUGCC [U109C U115C A129U A140G],0.6
6,UACGUAGGUGGCUUUCCCCUGAUAGUGCUAAGGGGGCCUGGUAGUUUGGACCGGGCAGAGCUCAACACAGCGUGGCAAAGUGGCUGUGGCUAGACUGCCUCUCUGGAUACCUCGUCACUCAGCAGGGCAUCUCUGAGAGAAAUGCC [U12C A42U U52C U109A],0.79
7,UACGUAGGUGGUUUUCCCCUGAUAGUGCUAAGGGGGCUUGGAAGUUUGGACUGGGCAGAGCUCUACACCGCGUGGCAAAGUGGCUGUGGCUAGGCUGCCUCUCUGGAUUCCUCGUCACUCAGCAGGGCAUCUCUGAGAGAAAUGCC [C38U A64U A69C A94G],0.14
8,UACGUAGGUGGUUUUCCCCUGAUAGUGCUGAGGGGGCCUGGAAGUUUGGACUGGGCUGAGCUCAACACAGCGUGGCAAAGUGGCUGUGGCUAGACUGCCUCUCUGGAUUCCUCGUCACUCAGCAGGGCAUCUCUGAGAGUAAUGCC [A30G A57U A140U],0.58
9,UACGUAGGUGGCUUUCCCCUGAUAGUGCUAAGGGGGCCUGGGAGUUUGGACUGAGCAGAGCUCAACACAGCGUGGCAAAGUGGCUGUGGCUAGACUGCCUCUCUGGAUUCCUCGUCACUCAGCAGGGCAUCUCUGAGAGAAAUGCC [U12C A42G G54A],0.95
10,UACGUAGGUGGUUUUCCCCUGAUAGUGCUAAGGGGGCCUGGAAGUUUGGUCUGGGCAGUGCUCAACACAGCGUGGCAAAGUGGCUGUGGCUAGACCGCCUCUCUGGAUUCCUCGUCACUCAGCAGGGCAUCUCUGAGAGAAAUGCC [A50U A59U U96C],0.03
11,UGCGUAGGUGGUUUUCCCCUGAUAGUGCUAAGGGGGCCUGGGAGUUUGGACUGGGCAGAGCUCAACACAGCGUGGCAUAGUGGCCGUGGCUAGACUGCCUCUCUGGAUUCCUCGCCACUCAGCAGGGCAUCUCUGAGAGAAAUGCC [A2G A42G A78U U85C U115C],0.24
12,UACGUAGGUGGUUUUCCCCUGAUUGUGCUAAGGGGGCCUGGAAGCUUGGACUGGGCAGAGCUCAACACAGCGUGGCUAAGUGGCUGUAGCUAGACUGCCUCUCCGGAUUCCUCGUCACUCAGCAGGGCAUCUCUGAGGGAAAUGCC [A24U U45C A77U G88A U104C A138G],0.15
13,UACGUAGGUGGUUCUCCCCUGAUAGUGCUAAGGGGGCCUGGAAGUUUGGACUGGGCAGGGCUCAACACAGCGUGGCAAAGUGGCUGUGGCUAGACUGCCUCUCUGGAUUCCUCGUCACUCAGCAGGGCAACUCUGAGAGAAAUGCC [U14C A59G U130A],0.24
14,UACGUAGGUGGUUUUCCCCUGAUAGUGCUAAGGGGGCCUGGAAGUUUGGACUAGGCAGAGCUCUACACAGCGUGGCAAAGGGGCUGUGGCUAGACUGCCUCUCUGGAUUCCUCGUCUCUCAGCAGGGCAUCUCUGAGAGAAAUGCC [G53A A64U U81G A117U],0.45
15,UACGUAGGUGGUUUUCCCCUGAUAGUGCUAAGGAGGCCUGGAAGUUUGGACUGGGCAGAGCUCAACACAGCGUGGCAAAGUGGCUGUGGCUAGACUGCCUCACUGGAUUCCUCGUCACUCAGCAGGGCAUCUCUGGGAGAAAGGCC [G34A U102A A136G U143G],0.29
16,UACGUAGGUGGUUUUCCCCUGAUAGUGCUAAGGGGGCCUGGAAGCUUGGACUGGGCAGAGCUCAACACAGCGUGGCAGAGUGGCGGUGGCUAGACUGCCUCUCUGGACUCCUCGUCACUCAGCAGGGCAUCUCUGAGAGAAAUGCC [U45C A78G U85G U108C],2.04
17,UACGUAGGUGGUUUUCCCCUGAUAGUGCUAAGGGGGACUGGAGGUUUGGACUGGGCAGAGCUCAACACAGCGUGGCAAAGUGGCUGUGGCUAGACUGCCUCUCUGGAUUCCUCGUCACUCAGCAGGGCAUCUCUGAGAGAAGUGCC [C37A A43G A142G],1.2
18,UACGUAGGUGGUUUUCCCCUGAUAGUGCUAAGGGGGCCUGGAAGUUUGGACUGGGCAGAGCUCAACACAGCGUGGCAAAGUGGCUGUGGAUAGACUGCCCCUCUGGAUCCCUCGUCACUCAGCAGGGCAUCUCUGAGAGAAGUGCC [C90A U100C U109C A142G],0
19,UACGUAGGUGGUUCUCCCCUGAUAGCGCUAAGGGGGCCUGGAAGUUUGGACUGGGCAGAGCUCAUCACAGCGUGGCAAAGUGGCUGUGGCUAGACUGCCUCUCUGGAUUCCGCGUCACUCAGCAGGGCAUCUCUGAGAGAAAUGCC [U14C U26C A65U U112G],0
20,UACGUAGGUGGUUUUCCCCUGAGAGUGCUAAGGGGGCCUGGAAGUUUGGACUGGGCAGAGCUCAACACAGCGUGGCAAAGUGGCUGUGGCUAGACUGCUUCUCUGGAUACCUCGCCACUCAGCAGGGCAUCUCUGAGAGAGAUGCC [U23G C99U U109A U115C A141G],0.6
